Several values for one entry are separate records, joined by “and”; a condition that tells them apart may be missing. Equal entries are not always repeated. The campaign covered roughly 290,000 compounds. About 2,100 (0.72%) were called active. Inconclusive means that the source gave no clear call. Such entries were picked first, then a sample of the others. The call rests on the fitted dose curve; in most records, active means well fitted inhibition curve with a large enough effect; inconclusive means small, poorly fitted or top-dose-only effect, or effect the other way; inactive means flat fitted curve, though single readings scatter. Potencies beside an inconclusive call are fits to weak or partial responses and may not hold up.
biological target: Fructose-bisphosphate aldolase (Giardia intestinalis (strain ATCC 50803 / WB clone C6)) (UniProt A8B2U2); assay: qHTS Assay for Inhibitors of Fructose-1,6-bisphosphate Aldolase from Giardia Lamblia; details: purified Giardia FBPA; activity, negative = inhibition: at 59.6 µM (top of the series) unless noted; further: nearly all actives have a fitted effect of over 55% in size
How it was run: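 Giardia FBPA (40 nM reagent) was preincubated 10 min at RT with compound (up to 57.5 uM final), then substrate plus GAPDH/TPI/NAD/arsenate coupling system with diaphorase/resazurin was added; resorufin fluorescence (525/598 nm) was read after 20 min.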
On the % scale 0 is the no-effect control and ±100 the full control effect; potency means the concentration at half of the fitted maximal effect; tags describe the fitted curve by direction and shape.

UniProt A8B2U2, sequence (A8B2U2 whole entry, looked up): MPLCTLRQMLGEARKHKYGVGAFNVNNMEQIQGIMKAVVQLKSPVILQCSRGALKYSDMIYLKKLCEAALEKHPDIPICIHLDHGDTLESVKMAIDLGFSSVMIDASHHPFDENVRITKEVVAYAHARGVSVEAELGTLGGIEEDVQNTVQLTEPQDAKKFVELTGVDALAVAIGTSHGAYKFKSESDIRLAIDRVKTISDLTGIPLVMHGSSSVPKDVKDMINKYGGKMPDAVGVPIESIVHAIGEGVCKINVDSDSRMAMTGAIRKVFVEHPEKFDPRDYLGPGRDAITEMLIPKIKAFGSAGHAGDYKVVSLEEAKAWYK

Compound	Potency	activity, negative = inhibition
CCOC(=O)C(C)/C(C)=N/NC(N)=S (configuration not stated)	inconclusive: 22.3 µM [inhibitor, partial curve]	
O=C1Nc2cccnc2Sc2ccccc21		inactive: -21.6%
COc1cc2c(cc1OC)CN(Cc1ccc(F)cc1)CC2	inconclusive: 14.1 µM [inhibitor, partial curve]	
CCC1(CC)Cc2ccccc2C(N)=C1C#N	inconclusive: 15.8 µM [inhibitor, partial curve]	
Cc1ccc(N2C(N)=C(C#N)C(c3cc(CN4CCOCC4)cs3)C3=C2CC(C)(C)CC3=O)cc1 (configuration not stated)	inconclusive: 14.1 µM [inhibitor, partial curve]	
COc1ccc(-c2cc(=O)n(-c3nc4ccccc4[nH]3)[nH]2)cc1	inconclusive: 31.5 µM [inhibitor, single point]	
CN(C)c1ccc2nc3ccc(=[N+](C)C)cc-3sc2c1	inconclusive: 22.3 µM [inhibitor, partial curve] and inconclusive: 17.7 µM [inhibitor, partial curve]	
O=c1oc2ccccc2c(O)c1C(c1ccccn1)c1c(O)c2ccccc2oc1=O	inconclusive: 15.8 µM [inhibitor, single point]	
O=S(=O)(NNc1nccc(C(F)(F)F)n1)c1cccc(Cl)c1Cl	active: 15.8 µM	
c1ccc(-c2ccc(CN3CCN(c4ncccn4)CC3)cc2)cc1	inconclusive: 9.98 µM [inhibitor, partial curve]	
CCN1CC2=C(OC(N)=C(C#N)C2c2ccccc2)/C(=C\c2ccccc2)C1 (configuration not stated)	inconclusive: 15.8 µM [inhibitor, partial curve]	
c1ccc(Cn2cc(CN3CCCCO3)c(-c3ccc4c(c3)OCO4)n2)cc1	inconclusive: 11.2 µM [inhibitor, partial curve]	
CNC(=O)c1cc2cc(OC)ccc2oc1=N	inconclusive: 4.46 µM [inhibitor, full curve, poor fit]	
CCN1CCN(CC(=O)Nc2ccc(Cl)c(S(=O)(=O)N(C)C)c2)CC1	inconclusive: 14.1 µM [inhibitor, partial curve]	
CC(C)Oc1ccc(/C(O)=C2/C(=O)C(=O)N(CCN3CCNCC3)C2c2cccc([N+](=O)[O-])c2)cc1 (configuration not stated)		inactive: 13.2%
CCn1cc(C(=O)O)c(=O)c2cnc(N3CCN(C(=S)NC(=O)c4ccccc4)CC3)nc21	inconclusive: 35.4 µM [inhibitor, single point]	
C/C(=N\Nc1nccnc1Cl)c1ccc(Br)cc1	inconclusive: 10 µM [inhibitor, partial curve]	
Cc1cc(C)c(CN2CCC(n3nccc3NC(=O)CCOc3ccccc3)CC2)cc1C		inactive: 4.86%
O=C(NCCc1ccccc1)c1ccccc1NC(=O)C1CC=CCC1C(=O)O (configuration not stated)		inactive: 8.53%
COc1cc(/C=N/Nc2nc3c(c(=O)n(C)c(=O)n3C)n2Cc2ccccc2)ccc1OC(=O)c1ccco1	inconclusive: 15.8 µM [inhibitor, partial curve]	
COc1ccc(NC(=S)NCCCN2CCCC2)cc1Cl	active: 8.89 µM	

Compound	Potency	activity, negative = inhibition
O=C(O)CN1C(=O)CN=C(c2ccccn2)c2cc(Cl)ccc21	active: 19.9 µM	
O=C(/C=C/c1ccc(Cl)cc1)N1CCN(c2ccc([N+](=O)[O-])c(N3CCOCC3)c2)CC1		inactive: -16.9%
COc1cc2c(cc1OC)CN(c1ccc3ccccc3n1)CC2		inactive: -29.8%
O=C1/C(=C\c2ccco2)SC(=S)N1C1CCS(=O)(=O)C1 (configuration not stated)	inconclusive: 15.8 µM [inhibitor, partial curve]	
COc1cc(Br)cc(CN2CCN(c3ncccn3)CC2)c1O	inconclusive: 12.6 µM [inhibitor, partial curve]	
CCCCCC/C=C\CCCCCCCc1cccc(O)c1C(=O)O	inconclusive: 15.8 µM [activator, single point]	
CCN(Cc1ccc(OC)c(F)c1)C(=O)C1CCCO1 (configuration not stated)		inactive: -4.94%
COc1cc(S(=O)(=O)n2ccnc2)ccc1Br	inconclusive: 22.3 µM [inhibitor, single point]	
O=[N+]([O-])c1ccc(N=Cc2c(O)ccc3ccccc23)cc1	inconclusive: 17.7 µM [inhibitor, partial curve]	
CSCCC(NC(=O)CCC(=O)OCC(=O)[C@@]1(O)CCC2[C@@H]3CCC4=CC(=O)C=C[C@]4(C)C3[C@@H](O)C[C@@]21C)C(=O)O (some centres not stated)		inactive: 3.38%
O=C(c1cc(-c2ccc3c(c2)OCO3)on1)N1CCN(c2ccc(F)cc2)CC1		inactive: 3%
CO[C@H]1C=CO[C@@]2(C)Oc3c(C)c(O)c4c(O)c(c(C=NN5CCN(C6CCCC6)CC5)c(O)c4c3C2=O)NC(=O)C(C)=CC=C[C@H](C)[C@H](O)[C@@H](C)[C@@H](O)[C@@H](C)[C@H](OC(C)=O)[C@@H]1C	inconclusive: 6.29 µM [inhibitor, partial curve]	
O=C(NCCCN1CCOCC1)c1ccc2c(=O)n(-c3ccc(F)c(Cl)c3)c(=S)[nH]c2c1	inconclusive: 12.6 µM [inhibitor, partial curve]	
CC(=O)NC1C(=O)N(CCN2CCOCC2)c2ccc(Br)cc21 (configuration not stated)	inconclusive: 17.8 µM [activator, partial curve]	
COc1ccc(CCNCC(O)c2ccccc2)cc1 (configuration not stated)	inconclusive: 17.7 µM [inhibitor, partial curve]	
COc1cc(C(c2nnnn2C2CCCC2)N2CCN(C(=O)c3ccco3)CC2)cc(OC)c1OC (configuration not stated)	inconclusive: 31.6 µM [inhibitor, single point]	
CCOC(=O)c1c(C)oc2c1c(C=NCC1CCCO1)c(O)c1ccccc12 (configuration not stated)	inconclusive: 1.41 µM [inhibitor, full curve]	
Cc1cccc(N/N=C/c2ccc(O)c(O)c2O)c1	active: 14.1 µM	
CC(=O)c1ccc2c(c1)C1C(Cl)C(Sc3ccccc3[N+](=O)[O-])CC1C(c1ccccc1[N+](=O)[O-])N2 (configuration not stated)	inconclusive: 4.46 µM [inhibitor, full curve]	
CSS(=O)(=O)c1cccc2cccnc12	active: 17.7 µM	
CN(C)CCC=C1c2ccccc2CCc2ccccc21	inconclusive: 17.7 µM [inhibitor, single point]	

Reference: PubChem BioAssay AID2451 (National Center for Advancing Translational Sciences (NCATS), 2010)
